Laboratory results reported in publication PMC9352726 (Nature Communications, 2022).
Results are given in words; binding and its absence hold for the method and conditions named. For part of these data: In cells and extracts the contact can be indirect. Some results given as binding are weak or reduced against the parent protein; the word gives no strength. For part of these data: Where a sequence is shown, tags or fusion partners need not be part of it.

biological target: purified recombinant YP_3417, full length (Yersinia pestis); assay: SPR; Biacore T200; […] (0–20 μM) […] (20 mM HEPES pH 7.4, 150 mM NaCl, 3.4 mM EDTA, 0.005% P20); 25 °C; both purified

| Binder | binding |
| --- | --- |
| purified recombinant human guanylate-binding protein 1 (hGBP1) (natural protein, UniProt P32455 1-592, looked up, also called pSUMO-hGBP1) MASEIHMTGPMCLIENTNGRLMANPEALKILSAITQPMVVVAIVGLYRTGKSYLMNKLAGKKKGFSLGSTVQSHTKGIWMWCVPHPKKPGHILVLLDTEGLGDVEKGDNQNDSWIFALAVLLSSTFVYNSIGTINQQAMDQLYYVTELTHRIRSKSSPDENENEVEDSADFVSFFPDFVWTLRDFSLDLEADGQPLTPDEYLTYSLKLKKGTSQKDETFNLPRLCIRKFFPKKKCFVFDRPVHRRKLAQLEKLQDEELDPEFVQQVADFCSYIFSNSKTKTLSGGIQVNGPRLESLVLTYVNAISSGDLPCMENAVLALAQIENSAAVQKAIAHYEQQMGQKVQLPTETLQELLDLHRDSEREAIEVFIRSSFKDVDHLFQKELAAQLEKKRDDFCKQNQEASSDRCSALLQVIFSPLEEEVKAGIYSKPGGYRLFVQKLQDLKKKYYEEPRKGIQAEEILQTYLKSKESMTDAILQTDQTLTEKEKEIEVERVKAESAQASAKMLQEMQRKNEQMMEQKERSYQEHLKQLTEKMENDRVQLLKEQERTLALKLQEQEQLLKEGFQKESRIMKNEIQDLQTKMRRRKACTIS | binds |
| human guanylate-binding protein 4 (hGBP4) used in SPR (protein, UniProt Q96PP9 1-640) MGERTLHAAVPTPGYPESESIMMAPICLVENQEEQLTVNSKALEILDKISQPVVVVAIVGLYRTGKSYLMNRLAGKRNGFPLGSTVQSETKGIWMWCVPHLSKPNHTLVLLDTEGLGDVEKSNPKNDSWIFALAVLLSSSFVYNSVSTINHQALEQLHYVTELAELIRAKSCPRPDEAEDSSEFASFFPDFIWTVRDFTLELKLDGNPITEDEYLENALKLIPGKNPKIQNSNMPRECIRHFFRKRKCFVFDRPTNDKQYLNHMDEVPEENLERHFLMQSDNFCSYIFTHAKTKTLREGIIVTGKRLGTLVVTYVDAINSGAVPCLENAVTALAQLENPAAVQRAADHYSQQMAQQLRLPTDTLQELLDVHAACEREAIAVFMEHSFKDENHEFQKKLVDTIEKKKGDFVLQNEEASAKYCQAELKRLSEHLTESILRGIFSVPGGHNLYLEEKKQVEWDYKLVPRKGVKANEVLQNFLQSQVVVEESILQSDKALTAGEKAIAAERAMKEAAEKEQELLREKQKEQQQMMEAQERSFQEYMAQMEKKLEEERENLLREHERLLKHKLKVQEEMLKEEFQKKSEQLNKEINQLKEKIESTKNEQLRLLKILDMASNIMIVTLPGASKLLGVGTKYLGSRI | no binding |

biological target: FLAG-tagged YP_3417 (Yersinia pestis); assay: co-IP; […] (25 mM Tris-HCl pH 7.6, 150 mM NaCl, 0.5% Triton X-100); […]

| Binder | binding |
| --- | --- |
| Myc-tagged human guanylate-binding protein 1 (hGBP1) (protein, UniProt P32455 1-592) MASEIHMTGPMCLIENTNGRLMANPEALKILSAITQPMVVVAIVGLYRTGKSYLMNKLAGKKKGFSLGSTVQSHTKGIWMWCVPHPKKPGHILVLLDTEGLGDVEKGDNQNDSWIFALAVLLSSTFVYNSIGTINQQAMDQLYYVTELTHRIRSKSSPDENENEVEDSADFVSFFPDFVWTLRDFSLDLEADGQPLTPDEYLTYSLKLKKGTSQKDETFNLPRLCIRKFFPKKKCFVFDRPVHRRKLAQLEKLQDEELDPEFVQQVADFCSYIFSNSKTKTLSGGIQVNGPRLESLVLTYVNAISSGDLPCMENAVLALAQIENSAAVQKAIAHYEQQMGQKVQLPTETLQELLDLHRDSEREAIEVFIRSSFKDVDHLFQKELAAQLEKKRDDFCKQNQEASSDRCSALLQVIFSPLEEEVKAGIYSKPGGYRLFVQKLQDLKKKYYEEPRKGIQAEEILQTYLKSKESMTDAILQTDQTLTEKEKEIEVERVKAESAQASAKMLQEMQRKNEQMMEQKERSYQEHLKQLTEKMENDRVQLLKEQERTLALKLQEQEQLLKEGFQKESRIMKNEIQDLQTKMRRRKACTIS | binds |
| Myc-tagged human guanylate-binding protein 6 (hGBP6) (protein, UniProt Q6ZN66 1-633) MESGPKMLAPVCLVENNNEQLLVNQQAIQILEKISQPVVVVAIVGLYRTGKSYLMNHLAGQNHGFPLGSTVQSETKGIWMWCVPHPSKPNHTLVLLDTEGLGDVEKGDPKNDSWIFALAVLLCSTFVYNSMSTINHQALEQLHYVTELTELIKAKSSPRPDGVEDSTEFVSFFPDFLWTVRDFTLELKLNGHPITEDEYLENALKLIQGNNPRVQTSNFPRECIRRFFPKRKCFVFDRPTNDKDLLANIEKVSEKQLDPKFQEQTNIFCSYIFTHARTKTLREGITVTGNRLGTLAVTYVEAINSGAVPCLENAVITLAQRENSAAVQRAADYYSQQMAQRVKLPTDTLQELLDMHAACEREAIAIFMEHSFKDENQEFQKKFMETTMNKKGDFLLQNEESSVQYCQAKLNELSKGLMESISAGSFSVPGGHKLYMETKERIEQDYWQVPRKGVKAKEVFQRFLESQMVIEESILQSDKALTDREKAVAVDRAKKEAAEKEQELLKQKLQEQQQQMEAQDKSRKENIAQLKEKLQMEREHLLREQIMMLEHTQKVQNDWLHEGFKKKYEEMNAEISQFKRMIDTTKNDDTPWIARTLDNLADELTAILSAPAKLIGHGVKGVSSLFKKHKLPF | binds |
| Myc-tagged human guanylate-binding protein 2 (hGBP2) (protein, UniProt P32456 1-591) MAPEINLPGPMSLIDNTKGQLVVNPEALKILSAITQPVVVVAIVGLYRTGKSYLMNKLAGKKNGFSLGSTVKSHTKGIWMWCVPHPKKPEHTLVLLDTEGLGDIEKGDNENDSWIFALAILLSSTFVYNSMGTINQQAMDQLHYVTELTDRIKANSSPGNNSVDDSADFVSFFPAFVWTLRDFTLELEVDGEPITADDYLELSLKLRKGTDKKSKSFNDPRLCIRKFFPKRKCFVFDWPAPKKYLAHLEQLKEEELNPDFIEQVAEFCSYILSHSNVKTLSGGIPVNGPRLESLVLTYVNAISSGDLPCMENAVLALAQIENSAAVEKAIAHYEQQMGQKVQLPTETLQELLDLHRDSEREAIEVFMKNSFKDVDQMFQRKLGAQLEARRDDFCKQNSKASSDCCMALLQDIFGPLEEDVKQGTFSKPGGYRLFTQKLQELKNKYYQVPRKGIQAKEVLKKYLESKEDVADALLQTDQSLSEKEKAIEVERIKAESAEAAKKMLEEIQKKNEEMMEQKEKSYQEHVKQLTEKMERDRAQLMAEQEKTLALKLQEQERLLKEGFENESKRLQKDIWDIQMRSKSLEPICNIL | binds |
| Myc-tagged human guanylate-binding protein 5 (hGBP5) (protein, UniProt Q96PP8 1-586) MALEIHMSDPMCLIENFNEQLKVNQEALEILSAITQPVVVVAIVGLYRTGKSYLMNKLAGKNKGFSVASTVQSHTKGIWIWCVPHPNWPNHTLVLLDTEGLGDVEKADNKNDIQIFALALLLSSTFVYNTVNKIDQGAIDLLHNVTELTDLLKARNSPDLDRVEDPADSASFFPDLVWTLRDFCLGLEIDGQLVTPDEYLENSLRPKQGSDQRVQNFNLPRLCIQKFFPKKKCFIFDLPAHQKKLAQLETLPDDELEPEFVQQVTEFCSYIFSHSMTKTLPGGIMVNGSRLKNLVLTYVNAISSGDLPCIENAVLALAQRENSAAVQKAIAHYDQQMGQKVQLPMETLQELLDLHRTSEREAIEVFMKNSFKDVDQSFQKELETLLDAKQNDICKRNLEASSDYCSALLKDIFGPLEEAVKQGIYSKPGGHNLFIQKTEELKAKYYREPRKGIQAEEVLQKYLKSKESVSHAILQTDQALTETEKKKKEAQVKAEAEKAEAQRLAAIQRQNEQMMQERERLHQEQVRQMEIAKQNWLAEQQKMQEQQMQEQAAQLSTTFQAQNRSLLSELQHAQRTVNNDDPCVLL | binds |
